Some of the results follow.
molecular target: T1, OsWOX13 (Oryza sativa, UniProt Q5QMM3 1-267); assay: protein-binding microarray (RPBM); PBS, 2% BSA, 51.3 ng/ul salmon testes DNA, 50 uM zinc acetate, 200 nM TF, 25 C, 1 h; high values mean tight binding; details: protein: recombinant; tags: N-terminal polyhistidine and DsRed monomer fusion (pET32a); label: CyDye5-dUTP incorporated in the synthesized complementary strand; 3' TTTTT single-stranded linker to array surface; dsDNA, one strand shown
T1 sequence: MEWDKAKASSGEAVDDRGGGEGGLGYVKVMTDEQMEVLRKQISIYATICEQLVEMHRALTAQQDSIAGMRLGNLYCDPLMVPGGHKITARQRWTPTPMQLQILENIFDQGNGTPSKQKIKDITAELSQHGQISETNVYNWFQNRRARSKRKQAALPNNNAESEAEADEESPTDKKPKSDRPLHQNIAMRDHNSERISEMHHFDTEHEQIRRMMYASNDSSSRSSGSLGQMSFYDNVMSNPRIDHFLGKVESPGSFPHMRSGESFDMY
Method in brief: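 Transcription factors, each fused N-terminally to a polyhistidine tag and DsRed, were expressed in E. coli BL21-CodonPlus and purified on Ni–NTA. A custom Agilent array was made double-stranded by primer extension with Cy5-dUTP and blocked with 2% BSA. It was incubated with 200 nM protein in PBS, 2% BSA, salmon testes DNA and 50 µM zinc acetate at 25 °C for 1 h, then washed. The binding signal is per-feature fluorescence intensity (arbitrary units) read on an Axon 4000B scanner.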

Sequence	binding signal
TCCAACGTTTTGGTTTCAATCAGGAGATGACCCGTCAGGACGGAGTCACCTAGTGCAG	5530 fluorescence intensity (a.u.)
ACCCCAATCACTGACGCACCGGGCCCACGTAGCTCGACCCCGGAGTCACCTAGTGCAG	20600 fluorescence intensity (a.u.)
TATTTTATAGTTGATTAAACTGATGTATTGTTGTTGTCACCGGAGTCACCTAGTGCAG	6240 fluorescence intensity (a.u.)
AGGGAGGCTATTCAATCAGGAGCAAGTATTGAGGGAGGCACGGAGTCACCTAGTGCAG	4200 fluorescence intensity (a.u.)
AAAATTGTGCATTAATTAGTATAGTCATTTGTCCTCTCAACGGAGTCACCTAGTGCAG	32700 fluorescence intensity (a.u.)
GCAATATATAATTTGGTCTTGAATGGCACATGATTCTTCTCGGAGTCACCTAGTGCAG	5780 fluorescence intensity (a.u.)
TTCCTGATGTCAATTAACTGCAAAACTGTAGCGCAGAGCACGGAGTCACCTAGTGCAG	39200 fluorescence intensity (a.u.)
AATAATTAAATTTGATATAATAAATTAATATGTGATATGTCGGAGTCACCTAGTGCAG	35700 fluorescence intensity (a.u.)
CCAAAATTTGGCTTTAACTAAAACATATCCTAGCACCACCCGGAGTCACCTAGTGCAG	6420 fluorescence intensity (a.u.)
CTTGAGATAACAGTTATATAACTGTTTGCCAATTTCAAATCGGAGTCACCTAGTGCAG	4100 fluorescence intensity (a.u.)
CACCGTCCATAATTTATTTTAAATTCGCATTTAATTCGCTCGGAGTCACCTAGTGCAG	12800 fluorescence intensity (a.u.)
ATTGTAACTGACAAACACTTTATCATTGTTTTCAGCCAAACGGAGTCACCTAGTGCAG	7490 fluorescence intensity (a.u.)
TATAGTGCAGATTTTGAAATTGATGAGTGCACGTTTGGGCCGGAGTCACCTAGTGCAG	6560 fluorescence intensity (a.u.)
TTTGAGTGATTTTGTGCATTTGAAACCATGGTGCCCGGGCCGGAGTCACCTAGTGCAG	19800 fluorescence intensity (a.u.)
AGCTAATGAGCTAAACGCCCAGTCATTCAACACCGACCATCGGAGTCACCTAGTGCAG	3670 fluorescence intensity (a.u.)
AGATAATCATTGGATGCATGTCGGCAACCAACCATGCCTACGGAGTCACCTAGTGCAG	7050 fluorescence intensity (a.u.)
TTTCAAATCTCAAATTGAAAGTTTTCAAAATTTTCAAATCCGGAGTCACCTAGTGCAG	3760 fluorescence intensity (a.u.)
CCTATTCATAATTGATCATGTTAAAAGTTGTTTTCTGCCACGGAGTCACCTAGTGCAG	32300 fluorescence intensity (a.u.)
ACATATGCTAATGACGGATTAATTGGGCTCAAAAGATTCGCGGAGTCACCTAGTGCAG	9450 fluorescence intensity (a.u.)
ACAATAATCAACTTAATGATATGGAGATAGAATATTCCCACGGAGTCACCTAGTGCAG	13700 fluorescence intensity (a.u.)
GGAAATTGGCCTGAAACATAAAAGTCTTGAACCGTTTGAGCGGAGTCACCTAGTGCAG	5900 fluorescence intensity (a.u.)

Sequence	binding signal
CTTAATGTTTTAATCTATCTATATTAGTCCTTTAAGTTTTCGGAGTCACCTAGTGCAG	3890 fluorescence intensity (a.u.)
CTATGATTTGACAATGTATTTGCTACAGAAAACACATGCTCGGAGTCACCTAGTGCAG	42100 fluorescence intensity (a.u.)
GCTGCTACTGAGCAGATTGATTTGTTTCTGAATCTAGGAACGGAGTCACCTAGTGCAG	5670 fluorescence intensity (a.u.)
AGTAATGATTTCTTCTTTTAAGATGCTCTTTGCCATGCTACGGAGTCACCTAGTGCAG	11100 fluorescence intensity (a.u.)
TTGATAGATCAGCCATCGTCGCCGGGCCGAAAGTTAGCCGCGGAGTCACCTAGTGCAG	4030 fluorescence intensity (a.u.)
CACGTAATTTCTTTGCATGCTTGCAAGCGACCAAGGAGGGCGGAGTCACCTAGTGCAG	4810 fluorescence intensity (a.u.)
TCTTGATTTGTGGGCATTTTGCAGGGAATGTTCCATTTGCCGGAGTCACCTAGTGCAG	24700 fluorescence intensity (a.u.)
ACTTTTGGTTTGATTGAATATGGTATCCAGCAAACAAGCTCGGAGTCACCTAGTGCAG	39600 fluorescence intensity (a.u.)
ATACCATCACCGTTAAAATTCCGTCTATTCTACGCTGTTACGGAGTCACCTAGTGCAG	5490 fluorescence intensity (a.u.)
AATATAGTTGATTGGTCATCAATGAAGCCAAACGTATAATCGGAGTCACCTAGTGCAG	30500 fluorescence intensity (a.u.)
AAAACAAATTTGCACGATCACTCAAGTAATACTTTATCATCGGAGTCACCTAGTGCAG	11500 fluorescence intensity (a.u.)
AACCCTAGATTGATTTTGCGTGTGCTGCGTGAAGACGGCACGGAGTCACCTAGTGCAG	41400 fluorescence intensity (a.u.)
TATGGTGGTAATTGATGAAGCTGCTCAGGCTAGTGAAGTACGGAGTCACCTAGTGCAG	35100 fluorescence intensity (a.u.)
CTAATAAATTTTAGCTTAAAATATAACTTTTATAAAAGAGCGGAGTCACCTAGTGCAG	3160 fluorescence intensity (a.u.)
AATGATTTGTATTATGGTTGGAGTTTCTGCTGCTACTGTCCGGAGTCACCTAGTGCAG	40300 fluorescence intensity (a.u.)
TCTAAATGATTGTTATTTTCTTTCCTATTGTAAAGTTCAACGGAGTCACCTAGTGCAG	18900 fluorescence intensity (a.u.)
TGTCACAGGTAAATCACTGCAATTAGCGAGTCATGGCTCACGGAGTCACCTAGTGCAG	8530 fluorescence intensity (a.u.)
CATTAATTAGATTGAGACAGTACTGAGATGATTGCCGCCCCGGAGTCACCTAGTGCAG	65200 fluorescence intensity (a.u.)
ATAGATTAGGGTTGGGGACTCGCGGCTGGGTGGCTGGGCGCGGAGTCACCTAGTGCAG	3550 fluorescence intensity (a.u.)
GTTTAAATCAGTTGGAATTTCAAGTTTCAAGTTTCTAGTCCGGAGTCACCTAGTGCAG	3910 fluorescence intensity (a.u.)
GCAGGATGTGATTAGCTGAAAAGAAAAGCAAAACGCACAACGGAGTCACCTAGTGCAG	6430 fluorescence intensity (a.u.)

Sequence	binding signal
GCATAATTGGCCTCGTTTAATTCATAATAGGCTTCTTAATCGGAGTCACCTAGTGCAG	29300 fluorescence intensity (a.u.)
TGTCGTATGATCTAAGACATTGATTATCATCGAACGGCAGCGGAGTCACCTAGTGCAG	4880 fluorescence intensity (a.u.)
TCTAATTGAGCTTCCTAAATATTATATTGGTGGCAAAGTTCGGAGTCACCTAGTGCAG	27800 fluorescence intensity (a.u.)
TAGATTAATTATGCATCCTCCGTTCCTCCAGCCGATCGATCGGAGTCACCTAGTGCAG	16600 fluorescence intensity (a.u.)
TCGTCAGGTTAATCAAGGGAGGATTGAACGAGATTTCGTGCGGAGTCACCTAGTGCAG	5920 fluorescence intensity (a.u.)
CAATGTAATTACACTGTAGTTACATTGTAATTACATTGTACGGAGTCACCTAGTGCAG	15600 fluorescence intensity (a.u.)
ACTTTTCAGTCACATCATCTTTAATTTCAACCAAAATCCACGGAGTCACCTAGTGCAG	4420 fluorescence intensity (a.u.)
GTTCTTAATTTAAGCCTCAACTTGATCCATAACTAAGATGCGGAGTCACCTAGTGCAG	5070 fluorescence intensity (a.u.)
GGTGGGTAGGGTTAATTTTGGTTGGAGGTAGAGAGAGAGACGGAGTCACCTAGTGCAG	10300 fluorescence intensity (a.u.)
TTAGCTAAAACTTAATTAATGACGCACTAAAACGCTGCTTCGGAGTCACCTAGTGCAG	4390 fluorescence intensity (a.u.)
GGAATCTCCAATCAAGGTGAATTAAAAGGAAGGTATATTTCGGAGTCACCTAGTGCAG	14000 fluorescence intensity (a.u.)
TGTGCGGGTGATTTGTTATAACGACGCGTGTGGTGGGGCACGGAGTCACCTAGTGCAG	9030 fluorescence intensity (a.u.)
CTTCAATCTAAACACAATTTTACCTTTGCCAAAATTAGCCCGGAGTCACCTAGTGCAG	10800 fluorescence intensity (a.u.)
TCTAATTGGGAAAAGAATGCAAGCTATGAGAGAAGGTGAACGGAGTCACCTAGTGCAG	21100 fluorescence intensity (a.u.)
ATTCTGATAAATTTCAACTAGAATATTTGACATGGAGATTCGGAGTCACCTAGTGCAG	3920 fluorescence intensity (a.u.)
TCAAAATTAGTTCTGTTCCACACCATGCAGTTATGCCAAGCGGAGTCACCTAGTGCAG	4260 fluorescence intensity (a.u.)
GTGACATTCACTGACTGGTGCGCGTGTGTTTTGTTTGCGTCGGAGTCACCTAGTGCAG	6530 fluorescence intensity (a.u.)
TACACATATTTCAATTAATCTTTATTTATTGTTTATTAATCGGAGTCACCTAGTGCAG	8270 fluorescence intensity (a.u.)
AAATTGATGATGGATGATATGAATATGCATGTCCCCATCACGGAGTCACCTAGTGCAG	37300 fluorescence intensity (a.u.)
CACATGTAATAATGACGATTTAATTAGGCTCAAAAGATTTCGGAGTCACCTAGTGCAG	3740 fluorescence intensity (a.u.)
AATATAATAGAGTAACTTTCCTATTATGTATTGGATAGACCGGAGTCACCTAGTGCAG	3720 fluorescence intensity (a.u.)

Sequence	binding signal
CCATCCAACCAATTAATTTAATTTAATAATAATAAATCTGCGGAGTCACCTAGTGCAG	13700 fluorescence intensity (a.u.)
GATTTAATTAATCCATTCCCCTTCTGGCATGCCGCTAGAACGGAGTCACCTAGTGCAG	16300 fluorescence intensity (a.u.)
TTCCCAATATTAATTTGTCCGTTATGATTTCTGTTGCGTTCGGAGTCACCTAGTGCAG	17300 fluorescence intensity (a.u.)
GCAAATGCTTGACAGGAAACATTCAACTAGATCACATGGACGGAGTCACCTAGTGCAG	3490 fluorescence intensity (a.u.)
ATCTGATTGATACAGTACTTATTCACTGGAGTAGTATTTCCGGAGTCACCTAGTGCAG	40800 fluorescence intensity (a.u.)
TTTCTATAAATTAAAGGTCCCTTAAATTATTTAGGTCCAACGGAGTCACCTAGTGCAG	4980 fluorescence intensity (a.u.)
TTCCTAATTGTATTTCTATATGAACTCTATACTCTACTTCCGGAGTCACCTAGTGCAG	19900 fluorescence intensity (a.u.)
TTAGAGATATTGAAATTGATTGAGAGGGAACCAACAGATACGGAGTCACCTAGTGCAG	30500 fluorescence intensity (a.u.)
AAAACAAATTAAACTATCATATTTATTCACGGTCAAATTTCGGAGTCACCTAGTGCAG	10100 fluorescence intensity (a.u.)
TTATTAGTAAGAAATTTATAATTATACATTTTCATCTAAACGGAGTCACCTAGTGCAG	6060 fluorescence intensity (a.u.)
TCTGACTGAATTGATCGGGATTGAATTTCAAAATATCCATCGGAGTCACCTAGTGCAG	51000 fluorescence intensity (a.u.)
GTTGATAATTCAAATTTTAACTGATAAATATAAGGCAGGCCGGAGTCACCTAGTGCAG	22500 fluorescence intensity (a.u.)
CAAATAATTTTCATTAGAGGGATTAATGACTATATATGTCCGGAGTCACCTAGTGCAG	15200 fluorescence intensity (a.u.)
CTATTAATCATTGCCGATCGATTCCAACATGACATCGGCTCGGAGTCACCTAGTGCAG	3720 fluorescence intensity (a.u.)
TTTCTTAATATATGTCAATTTCAACTTTCCTATTTAAGCTCGGAGTCACCTAGTGCAG	7750 fluorescence intensity (a.u.)
TGAATTGATCGTGAGCTGATTGCAAGTTAAAACAATCTATCGGAGTCACCTAGTGCAG	18600 fluorescence intensity (a.u.)
CCAGATTACTATAATCCAATAATCTCCTCTAGAGGAGCTTCGGAGTCACCTAGTGCAG	8790 fluorescence intensity (a.u.)
TCCTAATTTAATTTGAGACCAACGAATTTGGTACAATTTTCGGAGTCACCTAGTGCAG	11700 fluorescence intensity (a.u.)
AAATAATTGTGCCTTATAATCCCTCCGTCCCAAAATAAGTCGGAGTCACCTAGTGCAG	8170 fluorescence intensity (a.u.)
CTCCACTAATTACTCCACCCAACCATTGGATTCAATGGGCCGGAGTCACCTAGTGCAG	21700 fluorescence intensity (a.u.)
TGGATGCATGACTGATGGTGATTGTGGTGCTGAAGATCAGCGGAGTCACCTAGTGCAG	13600 fluorescence intensity (a.u.)

Source: publication PMC7819943, “Rice protein-binding microarrays: a tool to detect cis-acting elements near promoter regions in rice”
